Assay results: PubChem BioAssay AID651791 (National Center for Advancing Translational Sciences (NCATS), 2012)
The inconclusive results got no clear call from the source; some entries with a clear call stand among them for comparison. No potency is given beside an inconclusive call; the fits are too rough. The source made the active and inactive calls. The call rests on the fitted dose curve; in most records, active means well fitted inhibition curve with a large enough effect; inconclusive means small, poorly fitted or top-dose-only effect; inactive means no such curve, though single readings can be large or run the other way.

Experiment: InCell qHTS Assay for Inhibitors of the mTORC1 Signaling Pathway in MEF (Tsc2-/-, p53-/-) Cells: Hit Validation;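 further: phospho-S6 Ser235/236 signal normalized to propidium iodide cell count per well; nearly all actives have a fitted effect of over 75% in size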
Conditions: phospho-rpS6 immunofluorescence, 24 h
Potency means the concentration at half of the fitted maximal effect; tags describe the fitted curve by direction and shape.

| SMILES | Potency |
| --- | --- |
| CN(C)c1ccc(C(=O)Nc2sc(Nc3ccccc3)nc2C(N)=O)cc1 | inconclusive [inhibitor, partial curve] |
| Cc1cccc(N2CCN(c3ncnc4c3nc3n4CCCCC3)CC2C)c1 (centres undefined) | active: 5.85 µM |
| CCCCCn1c(=N)n(CC(O)COc2cccc(C)c2)c2ccccc21 (centres undefined) | inconclusive [inhibitor, single point] |
| COc1ccc(NC(=O)c2ccc3c(=O)n4nc(Nc5cc(C)ccc5C)sc4nc3c2)cc1 | inconclusive [inhibitor, single point] |
| COc1ccc(NC(=O)CCS(=O)(=O)c2nc(-c3cccs3)cc(C(F)(F)F)n2)cc1OC | inconclusive [inhibitor, single point] |
| Cc1ccc(S(=O)(=O)c2nc(-c3cccs3)oc2SCC(=O)Nc2cc(C)cc(C)c2)cc1 | inconclusive [inhibitor, single point] |
| CCCCN(C)CCCNC(=O)C1CCN(c2nc3ccc(CC)cc3s2)CC1 | inconclusive [inhibitor, single point] |
| Cc1cc(C)cc(Oc2coc3cc(OCC(=O)NC4CCCCC4)ccc3c2=O)c1 | inconclusive [inhibitor, single point] |
| CC1C(=O)N2CCCc3cc(S(=O)(=O)Nc4ccc(Br)cc4F)cc1c32 (centres undefined) | active: 14.7 µM |
| Cc1ccc2nc(-c3cccc(NC(=O)CSc4ccc(Cl)cc4)c3)oc2c1 | inconclusive [inhibitor, single point] |
| COc1cc2cc(CNc3ccc(C)cc3)c(=O)n(CC(=O)Nc3ccc(F)cc3F)c2cc1OC | inconclusive [inhibitor, single point] |
| Cc1ccc(-n2c(SCC(=O)Nc3cccc(Cl)c3)nc3n[nH]c(C)c3c2=N)cc1 | inconclusive [inhibitor, single point] |
| COc1ccc(Cl)cc1C1CC(=O)Nc2cc3c(cc21)OCCO3 (centres undefined) | inconclusive [inhibitor, full curve, poor fit] |
| COC(=O)CN1C(=O)C(C)(C)c2cc(S(=O)(=O)Nc3ccc(Br)cc3F)ccc21 | inconclusive [inhibitor, single point] |
| CCCCOC(=O)c1ccc(NC(=O)c2sc3nc(C)cc(C)c3c2N)cc1 | inconclusive [inhibitor, single point] |
| Cc1ccc(NC(=O)CSc2ncc3c(n2)-c2ccccc2N(C)S3(=O)=O)c(Cl)c1 | inconclusive [inhibitor, partial curve] |
| CS(=O)(=O)c1ncc(Cl)c(C(=O)N(Cc2ccc(Cl)cc2)Cc2ccco2)n1 | active: 3.29 µM |

| SMILES | Potency |
| --- | --- |
| O=C(NCc1ccccc1)c1nc(S(=O)(=O)Cc2ccccc2)ncc1Cl | active: 5.85 µM |
| O=C(Cn1c(=O)n(Cc2ccc3c(c2)OCO3)c(=O)c2ccc(C(=O)NC3CCCCC3)cc21)Nc1ccccc1F | active: 5.21 µM |
| CCS(=O)(=O)c1ncc(Cl)c(C(=O)N2CCN(c3ccc(OC)cc3)CC2)n1 | active: 4.65 µM |
| Cc1cccc(NC(=O)c2nc(S(C)(=O)=O)ncc2Cl)c1 | active: 5.21 µM |
| COc1ccc(Cl)cc1NC(=O)CCCS(=O)(=O)c1nc(-c2ccc(OC)c(OC)c2)cc(C(F)(F)F)n1 | active: 14.7 µM |
| Cc1c(C(=O)OCCOc2ccccc2)[nH]c2c1C(=O)CC(c1ccccc1)C2 (centres undefined) | inconclusive [inhibitor, single point] |
| COc1ccccc1Nc1cc(C(=O)NCCCN(C)C2CCCCC2)c2ccccc2n1 | inconclusive [inhibitor, single point] |
| CCOc1ccccc1NC(=O)N(Cc1ccc(F)cc1)C1CCN(CC)CC1 | inconclusive [inhibitor, partial curve] |
| CC(C)CS(=O)(=O)c1oc(-c2ccc(F)cc2)nc1S(=O)(=O)c1ccccc1 | active: 3.29 µM |
| CC1=C(C(=O)Nc2ccc(C)cc2C)C(c2ccc(C(C)C)cc2)n2nc(C(F)(F)F)nc2N1 (centres undefined) | inconclusive [inhibitor, single point] |
| COc1ccc(CNC(=O)c2nc(S(=O)(=O)Cc3ccccc3)ncc2Cl)cc1 | inconclusive [inhibitor, single point] |
| COc1ccc(CCN2CCC(CNC(=O)c3cnn(-c4cccc(Cl)c4)c3C3CCN(C(=O)OC(C)(C)C)CC3)CC2)cc1 | inconclusive [inhibitor, single point] |
| CCS(=O)(=O)c1ncc(Cl)c(C(=O)NCc2ccc(OC)cc2)n1 | active: 4.65 µM |
| O=C(Nc1ccc(Cl)cc1)C1CCC(CNS(=O)(=O)c2ccc(Br)s2)CC1 (centres undefined) | inconclusive [inhibitor, single point] |
| CCOc1ccc(OCC)c(NS(=O)(=O)c2ccc(-c3coc(C)n3)cc2)c1 | inconclusive [inhibitor, partial curve] |
| Cc1ccc(C)c(CN2CCC(CNC(=O)c3cc4ccc5cccnc5c4[nH]3)CC2)c1 | inconclusive [inhibitor, single point] |
| COc1cc(Cl)c(C)cc1Nc1c2c(nc3ccccc13)CCC2 | inconclusive [inhibitor, full curve] |
